Measurements reported in patent publication US9963455B2, “Pyrazolo[1,5-a]pyrimidines as antiviral compounds” (Curovir AB, priority 2014, dated 2018).

Experiments:
[1] = rat, single dose, doses up to 2000 mg/kg
[2] = 28 days toxicity study, rat; details: Sprague Dawley rats
Procedure: In light of above findings from the present study, the No Observed Adverse Effect Level (NOAEL) of Ex 9 could be determined as 200 mg/kg body weight when administered orally to Sprague Dawley rats for 28 consecutive days under the tested dose levels and experimental conditions employed.

For `COc1ccc(-c2c(C)nn3c(NCc4ccc(F)cc4)cc(C)nc23)cc1OC` [Ex. 9, 3-(3,4-dimethoxyphenyl)-N-[(4-fluorophenyl)methyl]-2,5-dimethyl-pyrazolo[1,5-a]pyrimidin-7-amine], the “effects on clinical signs, mortality, body weight, body weight gain, feed consumption, absolute and relative organ weights” value [1] was “no adverse effects”, the macroscopic examination [1] was “no treatment related gross pathological findings were observed” and the “effects on clinical signs, body weight, feed consumption, hematology, clinical chemistry, urinalysis, neurological examination, gross necropsy and histopathological evaluation” value ([2]; 100 and 200 mg/kg body weight for 28 days, both sexes) was “no adverse effects”. For the same molecule, the “Serum biochemistry, liver findings” value ([2]; 28 days, at 200 mg/kg body weight in both the sexes) was “increase in cholesterol, which was correlated with findings of macrovesicular fatty changes in liver”.
